# Assay results as given in the supplement of paper PMC4967469.
# How the values were obtained:
# Experiment in all cases: Viability of human cancer cell lines after 72 h of drug (GDSC screen)
# WH-4-023 = compound: COc1ccc(N(C(=O)Oc2c(C)cccc2C)c2ccnc(Nc3ccc(N4CCN(C)CC4)cc3)n2)c(OC)c1 [WH-4-023]; conditions: top dose 5.12 µM; top dose inferred
# Method: (§1)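 Human cancer cell lines in 384-well plates, medium with 10% serum, drug for 72 h over a 256-fold dose range (nine 2-fold or five 4-fold steps up to the top dose). Adherent lines were fixed and stained with the nucleic acid dye Syto60, suspension lines read with resazurin; signal relative to control wells, capped at 0 and 100%. One two-parameter sigmoid per drug and line, fitted in a mixed model over all curves with the slope shared within a line.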
# UNC0638 = compound: COc1cc2c(NC3CCN(C(C)C)CC3)nc(C3CCCCC3)nc2cc1OCCCN1CCCC1 [UNC0638]
# Method: as §1
# GSK690693 = compound: CCn1c(-c2nonc2N)nc2c(C#CC(C)(C)O)ncc(OC[C@H]3CCCNC3)c21 [GSK690693]; conditions: top dose 10.24 µM; top dose inferred
# Method: as §1
# PI-103 = compound: Oc1cccc(-c2nc(N3CCOCC3)c3oc4ncccc4c3n2)c1 [PI-103]; conditions: top dose 10.24 µM
# Method: as §1
# SB-505124 = compound: Cc1cccc(-c2[nH]c(C(C)(C)C)nc2-c2ccc3c(c2)OCO3)n1 [SB-505124]; conditions: top dose 10 µM; top dose inferred
# Method: as §1
# BX-795 = compound: O=C(NCCCNc1nc(Nc2cccc(NC(=O)N3CCCC3)c2)ncc1I)c1cccs1 [BX-795]; conditions: top dose 5 µM; top dose inferred
# Method: as §1
# Tretinoin = compound: CC1=C(/C=C/C(C)=C/C=C/C(C)=C/C(=O)O)C(C)(C)CCC1 [Tretinoin]; conditions: top dose 10 µM; top dose inferred
# Method: as §1
# [1] = top dose 20 µM, screen: GDSC drug entry 1236, top dose inferred
# [2] = top dose 40 µM, screen: GDSC drug entry 245
Cell Line,AUC (WH-4-023),IC50 (WH-4-023) [µM],AUC (UNC0638; [1]),IC50 (UNC0638; [1]) [µM],AUC (UNC0638; [2]),IC50 (UNC0638; [2]) [µM],AUC (GSK690693),IC50 (GSK690693) [µM],AUC (PI-103),IC50 (PI-103) [µM],AUC (SB-505124),IC50 (SB-505124) [µM],AUC (BX-795),IC50 (BX-795) [µM],AUC (Tretinoin),IC50 (Tretinoin) [µM]
"LOXIMVI (melanoma, semi-adherent)",0.963,> 5.12,0.782,7.4,0.784,15.1,0.988,> 10.2,0.789,3.99,0.976,> 10,0.756,1.54,,
"MOLM-13 (acute myeloid leukaemia, suspension)",0.889,> 5.12,0.749,6.11,0.578,4.02,0.664,1.77,0.146,0.0559,0.979,> 10,0.404,0.173,,
"MZ7-mel (melanoma, adherent)",0.874,> 5.12,0.744,6.44,0.569,3.9,0.984,> 10.2,0.914,> 10.2,0.985,> 10,0.985,> 5,,
"NB7 (neuroblastoma, adherent)",0.965,> 5.12,0.985,> 20,0.846,31.2,0.976,> 10.2,0.499,0.638,0.882,> 10,0.846,3.9,,
"NB-4 (acute myeloid leukaemia, suspension)",0.989,> 5.12,0.74,5.16,0.525,2.89,0.913,10.2,0.304,0.204,0.99,> 10,0.811,2.08,,
"NCI-H716 (large intestine, suspension)",0.945,> 5.12,0.798,12.5,0.731,13.7,0.943,> 10.2,0.787,5.73,0.952,> 10,,,,
"NCI-H1355 (lung adenocarcinoma, adherent)",0.746,2.28,0.906,> 20,0.964,> 40,0.978,> 10.2,0.914,> 10.2,0.914,> 10,0.887,> 5,,
"NCI-H1963 (small cell lung carcinoma, suspension)",0.984,> 5.12,,,0.74,10.8,,,,,,,,,0.991,> 10
"RPMI-8226 (myeloma, suspension)",0.976,> 5.12,0.688,3.88,0.606,4.69,0.979,> 10.2,0.331,0.233,0.979,> 10,0.836,2.73,,
"RS4-11 (leukaemia, suspension)",0.97,> 5.12,0.798,8.61,0.553,3.45,0.471,0.538,0.126,0.0483,0.985,> 10,0.65,0.783,,

# By IC50 is meant the dose at which the fit gives 50% viability; fits outside the tested doses are given as limits. The AUC spans the tested range (256-fold, ending at the top dose) of the same fit; it is 1 without any effect and falls as sensitivity rises. For some of these results: A top dose marked as inferred comes from the curve model; the source does not state it. For some of these results: An entry number marks a drug with two screens in the source, which often give different values.
